Variants at the background level are over-represented here.
B1: tRNA (parent)
chain: CUCUCGGUAGCCAAGUUGGUUUAAGGCGCAAGACUUUAAUUUAUCACUACGAAAUCUUGAGAUCGGGCGUUCGACUCGCCCCCGGGAGAUUUUUUCCUCGAGCAA

Variants of: B1
Assay: nonsense suppression (GFP-seq) (ratio to wild type); higher = more function; SUP4oc tRNA, yeast GFP reporter sort-seq
In short: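 To measure nonsense suppression, tRNA variants from a library carrying ~3% random mutations were integrated into the yeast genome alongside RFP and a GFP ochre reporter under galactose control. Growth took place in raffinose/galactose medium supplemented with 80 mg/L adenine, followed by sorting into GFP/RFP bins and Illumina sequencing of each bin (phred ≥30). For each variant with ≥100 reads and ≥30 cells, the bin median GFP/RFP values were weighted by its estimated cell share per bin and referenced to the unmutated parent tRNA.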

Nonsense suppression, 0.0309:
CUCUCGGUAACCAAGUUGGUUUAAGGCGCAAGACUUUAAUUUAUCACUACGAACUCUUGAGAUCGGGCGUUCGACUCGCCCCCGGGAGAUUUUUUCCUCGAGCAA

Nonsense suppression, ≤ 0.026:
CUCUCGGUAACCAUGUUGGUUUAAGGGGGAAGACUUUAAUUUAUCACUACGAAAUCUUGAGAUCGGGCGUUCGACUCGCCCCCGGAAGGUUUUUUCCUCGAGCAA
CUCUCGGUAACCAAGUUGGUUUCAGGCGCAAGACUUUAAUUUAUCACUACGAAAUCUUGAACUCGGGCGUUCGACUCGCCCCCGGGAGAUUUUUUCCUCGAGCAA
CUCUCGGUAACCAAGUUGGUUUACGGCGCAAGACUUUAAUUUAUCACUACGAAAUCUUGAGAUCGGGCGUUCGACUCGCCCCCGUGAGAUUUUUUCCUCGAGCAA
CUCUCGGUAACCAAGUUGGUUUAGGUCGCAAGACUUUAAUUUAUCACUACGAAAUCUUGAGAUCGGGCGUUCGACUCGCCCCCGGGCGAUUUUUUCCUCGAGCAA
CUCUCGGUAACCAAGUUGGUUUAAGGCGCCAGACUUUAAUUUAUCACUACGAAAUCUUGAGAUCGGGCGUUCGACUCGCCCACGGGAGAUUUUUUCCUCGAGCAA
CUCUCGGUAACCAAGUUGGUUUAAGGCGCGAGACUUUAAUUUAUCACUACGAAAUCUUGAGAUAGGGCGUUCGACUCGCCCCCGGGAGAUUUUUUCCUCGAGCAA
CUCUCGGUAACCAAGUUGGUUUAAGGCGCGAGACUUUAAUUUAUCACUACGAAAUCUAGAGAGCGGGCGUUCGACUCGCCCCCGGGAGAUUUUUUCCUCGAGCAA
CUCUCGGUAACCAAGUUGGUUUAAGGCGCACGACUUUAAUUUAUCACUACGAAAUCUUGAGAUCCGGCGUUCGACUCGCCCCCGGUAGAUUUUUUCCUCGAGCAA
CUCUCGGUAACCAAGUUGGUUUAAGGCGCAGGACUUUAAUUUAUCACUACGAAAUCUUGAGAUCGGGCGUUCGACUCGCCCCCGGGAGAUUUUUUCCUCGAGCAA
CUCUCGGUAACCAAGUUGGUUUAAGGCGCAGGACUUUAAUUUAUCACUACGAAAGCUUGACAUCGGGCGUUCGACUCGCCCCCGGGAGAUUUUUUCCUCGAGCAA
CUCUCGGUAACCAAGUUGGUUUAAGGCGCAAGCUUUUAAUUUAUCACUACGAAAUCUUGAGAUCGGGCGUUCGACUCGCCCCCGGGAGAUUUUUUCCUCGAGCAA
CUCUCGGUAACCAAGUUGGUUUAAGGCGCAAGGCUUUAAUUUAUCACUACGAAAUCUUGAGAUCGGGCGUUCGAGUCGCCCCCGGGAGAUUUUUUCCUCGAGCAA
CUCUCGGUAACCAAGUUGGUUUAAGGCGCAAGGCUUUAAUUUAUCACUACGAAAUCUAGAGAUCGGGAGUUCGACUCGCCCCCGGUAAAUUUUUUCCUCGAGCAA
CUCUCGGUAACCAAGUUGGUUUAAGGCGCAAGACUUUAAUUUAUCACUACGAAGUCUUGAGAUCGGGCGUUCGACUCGCCCCCGGGAGAUUUUUUCCUCGAGCAA
CUCUCGGUAACCAAGUUGGUUUAAGGCGCAAGACUUUAAUUUAUCACUACGAAAUCUUGGGAUCGGGCGUUCGACUCGCCCCCGGGAGAUUUUUUCCUCGAGCAA
CUCUCGGUAAACAAGUUGGUUUAAGGCGCUAGACUUUAAUUUAUCACUACGAAAUGUUGAGAUCGGGCGUUCGACUCGCCCCCGGGAGAUUUUUUCCUCGAGCAA
CUCUCGGUAAGCAAGUUGGUUUAAGGCGCACGACUUUAAUUUAUCACUACGAAAUCUUGAGAUCGGGUGUUCGACUCGCCCCCGGGAGAUUUUUUCCUCGAGCAA
CUCUCGGUAAUCAAGUUGGUUUAAGGCGCAAGACUUUAAUUUAUCACUACGAAAUCUUGAGAUUGGGCGUUCGACUCGCCCCCGGGAGAUUUUUUCCUCGAGCAA
CUCUCGGUAACAAAGUUGGUUUAAGGCGCAAGACUUUAAUUUAUCACUACGAAAUCUUGAGAUCGGGCGUGCGACACGCCCCCGGGAGAUUUUUUCCUCGAGCAA
CUCUCGGUAACUAAGUUGGUUUAAGGCGCAAGACUUUAAUUUAUCACUACGAAAUCUUGAGAUCGGGCGUUCGACUCGCCCCCGGGAGAUUUUUUCCUCGAGCAA
CUCUCGGUAACCAAGUUGGUUUAAGGUGCAAGACUUUAAUUUAUCACUACGAAAUCUUGAGAUCGGGCGUUCGACUCGCCCCCGGGAGAUUUUUUCCUCGAGCAA
CUCUCGGUAACCAAGUUGGUUUAAGGCGCAAGAGUUUAAUUUAUCACUACGAAAUCUUGAGAUCGGGCGUUCGACUCGCGCCCGGGACAUUUUUUCCUCGAGCAA
CUCUCGGUAACCAAGUUGGUUUAAGGCGCAAGAGUUUAAUUUAUCACUACGAAAUCUUGAGAUCGGGCGUUCUCCUCGCCCCCGGGAGAUUUUUUCCUCGAGCAA
CUCUCGGUAACCAAGUUGGUUUAAGGCGCAAGACUUUAAUUUAUCACUACGAAAUAUUGAGAUCGGGCGUUCGACUCGCCCCCGGGAGAUUUUUUCCUCGAGCAA
CUCUCGGUAACCAAGUUGGUUUAAGGCGCAAGACUUUAAUUUAUCACUACGAAAUGUUGAGAUCGGGCGUUCGACUCGCCCCCGGGAGAUUUUUUCCUCGAGCAA
CUCUCGGUAACCAAGUUGGUUUAAGGCGCAAGACUUUAAUUUAUCACUACGAAAUCUUGAGAUGGGGCGUUCGACUCGCCCCCGGGAGAUUUUUUCCUCGAGCAA
CUCUCGGUAACCAAGUUGGUUUAAGGCGCAAGACUUUAAUUUAUCACUACGAAAUCUUGAGAUCGGGCGUUCGAAUCGCCCCCGCGAGAUUUUUUCCUCGAGCAA
CUCUCGGUAACCAAGUUGGUUUAAGGCGCAAGACUUUAAUUUAUCACUACGAAAUCUUGAGAUCGGGCGUUCGACUGGCCCCCGGGCGAUUUUUUCCUCGAGCAA
CUCUCGGUAACCAAGUUGGUUUAAGGCGCAAGACUUUAAUUUAUCACUACGAAAUCUUGAGAUCGGGCGUUCGACUUGCCCCCGGGCGAUUUUUUCCUCGAGCAA
CUCUCGGUAACCAAGUUGGUUUAAGGCGCAAGACUUUAAUUUAUCACUACGAAAUCUUGAGAUCGGGCGUUCGACUUGCCCCCGGUAGAUUUUUUCCUCGAGCAA
CUCUCGGUAACCAAGUUGGUUUAAGGCGCAAGACUUUAAUUUAUCACUACGAAAUCUUGAGAUCGGGCGUUCGACUCGGCCCCGGGAGAUUUUUUCCUCGAGCAA
CUCUCGGUAACCAAGUUGGUUUAAGGCGCAAGACUUUAAUUUAUCACUACGAAAUCUUGAGAUCGGGCGUUCGACUCGCCCACGGGAAAUUUUUUCCUCGAGCAA
CUCUCGGUAACCAAAUUGGUUUAAGGCGCAAGACUUUAAUUUAUCACUACGAAAUCUUGAGAUCGGGCGUUCGACUCGCCCCCGCGAGAUUUUUUCCUCGAGCAA
CUCUCGGUAACCAACUUGGUUUAAGGCGCAAGACUUUAAUUUAUCACUACGAAGUCUUGAGCUCGGGCGUUCGACUCGCCCCCGGGAGAUUUUUUCCUCGAGCAA
CUCUCGGUAACCAAGUUUGUUUAAGGCGCAAGACUUUAAUUUAUCACUACGAAAUCUUGAGAUCGGGCGUUCGACUCGCCCCCGGGAGAUUUUUUCCUCGAGCAA
CUCUCGGUAACCAAGUUGGUUUAAGUCGCAAGACUUUAAUUUAUCACUACGAAAUCUUGAGAUCCGGCGUUCGACUCGCCCCCGGGAGAUUUUUUCCUCGAGCAA
CUCUCGGUAACCAAGUUGGUUUAAGGCACAAGACUUUAAUUUAUCACUACGAAAUCUUGAGAUCGGGCGUUCGACUCGCCCCCGGGAGAUUUUUUCCUCGAGCAA
CUCUCGGUAACCAAGUUGGUUUAAGGCCCAAGACUUUAAUUUAUCACUACGAAAUCUUGACAUCGGGCGUUCGACUCGCCCCCGGGAGAUUUUUUCCUCGAGCAA
CUCUCGGUAACCAAGUUGGUUUAAGGCGCAACACUUUAAUUUAUCACUACGAAAUCUUGAGAUCGGGCGUUCGACUCGCCCCCGGGAGAUUUUUUCCUCGAGCAA
CUCUCGGUAACCAAGUUGGUUUAAGGCGCAACACUUUAAUUUAUCACUACGAAAUCUUGAGAUCGGGCGUUCGACUCGCCCCCGGGACAUUUUUUCCUCGAGCAA
CUCUCGGUAACCAAGUUGGUUUAAGGCGCAACACCUUAAUUUAUCACUACGAAAUCUUGAGAUCGGGCGUUCGACUCGCCCCCGGGAGAUUUUUUCCUCGAGCAA
CUCUCGGUAACCAAGUUGGUUUAAGGCGCAAGACUUUAAUUUAUCACUACGAAAUCUUAAGAUCGGGCGUUCGACUCGCCCCCGGGAGAUUUUUUCCUCGAGCAA
CUCUCGGUAACCAAGUUGGUUUAAGGCGCAAGACUUUAAUUUAUCACUACGAAAUCUUGAAAUCGGGCGUUCGACUCGCCCCCGGGACAUUUUUUCCUCGAGCAA
CUCUCGGUAACCAAGUUGGUUUAAGGCGCAAGACUUUAAUUUAUCACUACGAAAUCUUGACAUCGGGCGUUCGACUCGCCCCCGGUAGAUUUUUUCCUCGAGCAA
CUCUCGGUAACCAAGUUGGUUUAAGGCGCAAGACUUUAAUUUAUCACUACGAAAUCUUGAUAUCGGGCGUUCGACUCGCCCCCGGGAGAUUUUUUCCUCGAGCAA
CUCUCGGUAACCAAGUUGGUUUAAGGCGCAAGACUUUAAUUUAUCACUACGAAAUCUUGAGAUCCGGCGUUCAACUCGCCCCCGGGAGAUUUUUUCCUCGAGCAA
CUCUCGGUAACCAAGUUGGUUUAAGGCGCAAGACUUUAAUUUAUCACUACGAAAUCUUGAGAUCUGGCGUUCGACUCGCCCCCGGGAGAUUUUUUCCUCGAGCAA
CUCUCGGUAACCAAGUUGGUUUAAGGCGCAAGACUUUAAUUUAUCACUACGAAAUCUUGAGAUCUGGAGUUCGACUCGCCCACGGGAGAUUUUUUCCUCGAGCAA
CUCUCGGUAACCAAGUUGGUUUAAGGCGCAAGACUUUAAUUUAUCACUACGAAAUCUUGAGAUCGAGCGUUCGACUCGCCCCCGGGAGAUUUUUUCCUCGAGCAA
CUCUCGGUAACCAAGUUGGUUUAAGGCGCAAGACUUUAAUUUAUCACUACGAAAUCUUGAGAUCGGAUGUUCGACUCGCCCCCGGGAGAUUUUUUCCUCGAGCAA
CUCUCGGUAACCAAGUUGGUUUAAGGCGCAAGACUUUAAUUUAUCACUACGAAAUCUUGAGAUCGGGCGUUCCACUCGGCCCCGCAAGAUUUUUUCCUCGAGCAA
CUCUCGGUAACCAAGUUGGUUUAAGGCGCAAGACUUUAAUUUAUCACUACGAAAUCUUGAGAUCGGGCGUUCGACUCCCCCCCGGGAGAUUUUUUCCUCGAGCAA
CUCUCGGUAACCAAGUUGGUUUAAGGCGCAAGACUUUAAUUUAUCACUACGAAAUCUUGAGAUCGGGCGUUCGACUCGCCCCCGAUAGAUUUUUUCCUCGAGCAA

— the RNAGym collection of RNA variant scans (doi:10.1101/gad.245936.114)
